B1: Fc-(L15)-FGF21 (L98R, P171G) (Fc fusion)
chain: [skipping human IgG1 Fc]GGGGGSGGGSGGGGSHPIPDSSPLLQFGGQVRQRYLYTDDAQQTEAHLEIREDGTVGGAADQSPESLLQLKALKPGVIQILGVKTSRFLCQRPDGALYGSLHFDPEACSFRERLLEDGYNVYQSEAHGLPLHLPGNKSPHRDPAPRGPARFLPLPGLPPAPPEPPGILAPQPPDVGSSDPLSMVGGSQGRSPSYAS
B2: Fc-(L15)-FGF21 (L98R, P171G, Y179F) (Fc fusion)
chain: [skipping human IgG1 Fc]GGGGGSGGGSGGGGSHPIPDSSPLLQFGGQVRQRYLYTDDAQQTEAHLEIREDGTVGGAADQSPESLLQLKALKPGVIQILGVKTSRFLCQRPDGALYGSLHFDPEACSFRERLLEDGYNVYQSEAHGLPLHLPGNKSPHRDPAPRGPARFLPLPGLPPAPPEPPGILAPQPPDVGSSDPLSMVGGSQGRSPSFAS
B3: Fc-(L15)-FGF21 (L98R, P171G, A180E) (Fc fusion)
chain: [skipping human IgG1 Fc]GGGGGSGGGSGGGGSHPIPDSSPLLQFGGQVRQRYLYTDDAQQTEAHLEIREDGTVGGAADQSPESLLQLKALKPGVIQILGVKTSRFLCQRPDGALYGSLHFDPEACSFRERLLEDGYNVYQSEAHGLPLHLPGNKSPHRDPAPRGPARFLPLPGLPPAPPEPPGILAPQPPDVGSSDPLSMVGGSQGRSPSYES
B4: Fc-(L15)-FGF21 (L98R, P171G, A180G) (Fc fusion)
chain: [skipping human IgG1 Fc]GGGGGSGGGSGGGGSHPIPDSSPLLQFGGQVRQRYLYTDDAQQTEAHLEIREDGTVGGAADQSPESLLQLKALKPGVIQILGVKTSRFLCQRPDGALYGSLHFDPEACSFRERLLEDGYNVYQSEAHGLPLHLPGNKSPHRDPAPRGPARFLPLPGLPPAPPEPPGILAPQPPDVGSSDPLSMVGGSQGRSPSYGS
B5: Fc-(L15)-FGF21 (L98R, P171G, Y179S) (Fc fusion)
chain: [skipping human IgG1 Fc]GGGGGSGGGSGGGGSHPIPDSSPLLQFGGQVRQRYLYTDDAQQTEAHLEIREDGTVGGAADQSPESLLQLKALKPGVIQILGVKTSRFLCQRPDGALYGSLHFDPEACSFRERLLEDGYNVYQSEAHGLPLHLPGNKSPHRDPAPRGPARFLPLPGLPPAPPEPPGILAPQPPDVGSSDPLSMVGGSQGRSPSSAS
B6: Fc-(L15)-FGF21 (L98R, P171G, Y179A) (Fc fusion)
chain: [skipping human IgG1 Fc]GGGGGSGGGSGGGGSHPIPDSSPLLQFGGQVRQRYLYTDDAQQTEAHLEIREDGTVGGAADQSPESLLQLKALKPGVIQILGVKTSRFLCQRPDGALYGSLHFDPEACSFRERLLEDGYNVYQSEAHGLPLHLPGNKSPHRDPAPRGPARFLPLPGLPPAPPEPPGILAPQPPDVGSSDPLSMVGGSQGRSPSAAS
B7: Fc-(L15)-FGF21 (L98R, P171G, A180S) (Fc fusion)
chain: [skipping human IgG1 Fc]GGGGGSGGGSGGGGSHPIPDSSPLLQFGGQVRQRYLYTDDAQQTEAHLEIREDGTVGGAADQSPESLLQLKALKPGVIQILGVKTSRFLCQRPDGALYGSLHFDPEACSFRERLLEDGYNVYQSEAHGLPLHLPGNKSPHRDPAPRGPARFLPLPGLPPAPPEPPGILAPQPPDVGSSDPLSMVGGSQGRSPSYSS
B8: Fc-(L15)-FGF21 (L98R, P171G, 182P) (Fc fusion)
chain: [skipping human IgG1 Fc]GGGGGSGGGSGGGGSHPIPDSSPLLQFGGQVRQRYLYTDDAQQTEAHLEIREDGTVGGAADQSPESLLQLKALKPGVIQILGVKTSRFLCQRPDGALYGSLHFDPEACSFRERLLEDGYNVYQSEAHGLPLHLPGNKSPHRDPAPRGPARFLPLPGLPPAPPEPPGILAPQPPDVGSSDPLSMVGGSQGRSPSYASP
B9: Fc-(L15)-FGF21 (L98R, P171G, 182G) (Fc fusion)
chain: [skipping human IgG1 Fc]GGGGGSGGGSGGGGSHPIPDSSPLLQFGGQVRQRYLYTDDAQQTEAHLEIREDGTVGGAADQSPESLLQLKALKPGVIQILGVKTSRFLCQRPDGALYGSLHFDPEACSFRERLLEDGYNVYQSEAHGLPLHLPGNKSPHRDPAPRGPARFLPLPGLPPAPPEPPGILAPQPPDVGSSDPLSMVGGSQGRSPSYASG
B10: Fc-(L15)-FGF21 (L98R, P171G, 182G, 183G) (Fc fusion)
chain: [skipping human IgG1 Fc]GGGGGSGGGSGGGGSHPIPDSSPLLQFGGQVRQRYLYTDDAQQTEAHLEIREDGTVGGAADQSPESLLQLKALKPGVIQILGVKTSRFLCQRPDGALYGSLHFDPEACSFRERLLEDGYNVYQSEAHGLPLHLPGNKSPHRDPAPRGPARFLPLPGLPPAPPEPPGILAPQPPDVGSSDPLSMVGGSQGRSPSYASGG

Molecular target: β-Klotho overexpressed in recombinant human 293T kidney cells
Experiment: cell-based or functional assay

Binder	EC50 (nM), ELK-luciferase	Efficacy, ELK-luciferase
B1	2.5 nM	76.1%
B2	2.6 nM	78.3%
B3	1.9 nM	79.6%
B4	3.25 nM	76.9%
B5	25.3 nM	74.8%
B6	43.2 nM	79.6%
B7	2.18 nM	84.7%
B8	6.1 nM	85.9%
B9	6.5 nM	71.1%
B10	1940 nM	84.2%

Reference: US20100285131A1 (Amgen, published 2010)
